PubChem BioAssay AID1454 (National Center for Advancing Translational Sciences (NCATS), 2008)
“And” between values parts separate entries of the source, which are not always exact repeats. Equal entries are not always repeated. Among all 130,000 compounds or so, about 550 (0.42%) were called active. The shares of active, inactive and inconclusive entries below differ from those in the screen. Calls follow the shape of the dose curve; as a rule, active = well fitted inhibition curve with a large enough effect; inconclusive = small, poorly fitted or top-dose-only effect, or effect the other way; inactive = flat fitted curve, though single readings scatter. Potencies of inconclusive entries are doubtful fits and often do not repeat.
Potency is read from the fitted curve at half-maximal effect; tags tell the direction and shape of the fitted curve.

Assay: qHTS Assay for Inhibitors of the ERK Signaling Pathway using a Homogeneous Screening Assay; Stimulation with EGF; also: nearly all actives have a fitted effect of over 55% in size;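 as to activity change, negative = inhibition: plate controls were stimulated vehicle wells for no effect and unstimulated vehicle basal for full effect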
Details: HEK293-V1b, EGF-stimulated phospho-ERK AlphaScreen; activity change, negative = inhibition: at the top concentration
Summary of the method: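 EGF-stimulated (25 nM, 5 min) phospho-ERK in HEK293 cells stably expressing V1b, cells pretreated 30 min with compound at 37C. Homogeneous AlphaScreen read on lysates.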
In the case of `CC(C)(C)c1ccc(Oc2ccc(N)cc2)cc1`, the Potency is reported as inconclusive: 39.8 µM [inhibitor, single point]. With `C[C@@H]1C[C@H]2[C@@H]3C[C@H](F)C4=CC(=O)C=C[C@]4(C)[C@@]3(F)[C@@H](O)C[C@]2(C)[C@@]1(O)C(=O)COC(=O)C(C)(C)C` the “activity change, negative = inhibition” value was inactive: -17% [at 57.5 µM]. In the case of `COc1ccc(C(=O)/C=C/c2ccc(N(C)C)cc2)c(OC)c1`, the Potency is reported as inconclusive: 39.8 µM [inhibitor, single point]. In the case of `CN(C)CCCN(C(=O)c1cc2ccccc2oc1=O)c1nc2c(F)cccc2s1`, the Potency is reported as inconclusive: 28.2 µM [inhibitor, single point]. With `Cc1nn(-c2ccccc2)c(/N=C/c2ccc(O)cc2)c1-c1ccccc1` the Potency was inconclusive: 28.2 µM [inhibitor, single point]. With `O=C1[C@@H]2C(c3cccnc3)=NO[C@@H]2C(=O)N1c1ccc2ccccc2c1` the “activity change, negative = inhibition” value was inactive: -5.69% [at 57.5 µM]. For `Cc1ccccc1Cn1c(O)c(N=NC(=S)Nc2ccccc2F)c2ccccc21`, the Potency was inconclusive: 20 µM [inhibitor, partial curve]. For `O=c1cnc2cnc(OCc3ccccc3)nc2n1Cc1ccc(F)cc1`, the “activity change, negative = inhibition” value was inactive: -3.29%. With `CN(C)S(=O)(=O)Oc1ccc(C(=O)Nc2cccc(C(F)(F)F)c2)cc1` the Potency was inconclusive: 39.8 µM [inhibitor, single point]. For `CCCCC1=CC2=C(c3ccco3)C(=O)C(C)(OC(=O)c3ccc(OC)cc3)C(=O)C2=CN1CC1CC1` (stereo not given), the Potency was inconclusive: 39.8 µM [inhibitor, single point]. With `CC(Oc1ccc(Br)cc1)c1nc2c3ccccc3nc(=S)n2[nH]1` (stereo not given) the Potency was inconclusive: 25.1 µM [inhibitor, single point]. In the case of `CC(=O)/C(N=Nc1cc2c(c([N+](=O)[O-])c1C)C(C)(C)CC2(C)C)=C(\C)O`, the Potency is reported as inconclusive: 10 µM [inhibitor, partial curve]. In the case of `CC1=NN(c2ccc(Cl)cc2)C(=O)/C1=C\c1cccn1-c1ccc(S(N)(=O)=O)cc1`, the Potency is reported as active: 25.1 µM. For `O=C(CN1CCCCC1)Nc1c2c(nc3ccccc13)N(c1ccccc1)CC2`, the “activity change, negative = inhibition” value was inactive: 4.95%. With `Cc1ccc(SC[C@H](c2ccccc2)N2CCN(C)CCC2=O)cc1` the “activity change, negative = inhibition” value was inactive: -16.3% [at 57.5 µM]. With `Cc1cccc(Cn2c(O)c(N=NC(=S)Nc3ccccc3F)c3ccccc32)c1` the Potency was inconclusive: 14.1 µM [inhibitor, partial curve]. For `CC(C)CCC1(CCNC(C)c2cccs2)CCOC(C)(C)C1` (stereo not given), the Potency was inconclusive: 14.1 µM [inhibitor, partial curve]. In the case of `O=[N+]([O-])c1cccc(/C=N\N=C2c3ccccc3-c3ccccc32)c1O`, the Potency is reported as inconclusive: 17.8 µM [inhibitor, partial curve]. With `CSc1ccccc1NC(=S)N/N=C/c1cccn1Cc1cccc(C)c1` the Potency was inconclusive: 11.2 µM [inhibitor, partial curve]. In the case of `C[C@@H]1Cc2c(O)c(O)cc(O)c2C(=O)O1`, the “activity change, negative = inhibition” value is reported as inactive: 9.37% [at 57.5 µM]. For `CC1(C)Nc2ccc(O)cc2-c2c1ssc2=S`, the Potency was inconclusive: 11.2 µM [inhibitor, single point]. For `CC(C)C[C@H](NC(=O)OC(C)(C)C)C(=O)N1CCC(C(=O)N[C@@H](Cc2ccccc2)C(=O)O)CC1`, the Potency was inconclusive: 3.16 µM [inhibitor, single point]. With `CC(C)c1ccc2c(c1)C1Cc3ccccc3C1N2` (stereo not given) the Potency was inconclusive: 12.6 µM [inhibitor, partial curve]. With `O=c1[nH][nH]c(-c2ccccc2O)c1C(C[N+](=O)[O-])c1cccc(Cl)c1` (stereo not given) the Potency was inconclusive: 31.6 µM [inhibitor, single point]. With `c1ccc(Nc2nc(NCc3ccco3)c3ccccc3n2)cc1` the Potency was inconclusive: 15.8 µM [inhibitor, partial curve, poor fit]. In the case of `O=C1C=CC(=O)N1c1ccc(O)cc1`, the Potency is reported as inconclusive: 39.8 µM [inhibitor, single point]. For `CC(C)C[C@@H](CC(=O)N[C@@H](CCC(=O)O)CC(=O)O)NC(=O)[C@@H]1CCCC[C@H]1NC(=O)C[C@@H](NC(=O)C[C@H](CO)NC(=O)[C@@H]1CNCC[C@H]1N)C(C)C`, the “activity change, negative = inhibition” value was inactive: -13.7%. With `Cc1c(CCOC(=O)CC23CC4CC(CC(C)(C4)C2)C3)sc[n+]1CC(=O)c1ccccc1` the Potency was inconclusive: 31.6 µM [inhibitor, single point]. For `O=C(Nc1ccccc1)/C(=C/c1ccccc1)c1ccccc1`, the Potency was inconclusive: 39.8 µM [inhibitor, single point]. In the case of `CCC(=O)N1CCN(c2ccc(NC(=O)COc3ccccc3[N+](=O)[O-])cc2)CC1`, the Potency is reported as inconclusive: 39.8 µM [inhibitor, single point]. For `CN(C)S(=O)(=O)c1cc(NC(=O)COC(=O)CCSc2ccc(Cl)cc2)ccc1Cl`, the Potency was inconclusive: 39.8 µM [inhibitor, single point]. For `CN=c1scc(-c2ccccc2Br)n1/N=C/c1ccc[nH]1`, the Potency was inconclusive: 35.5 µM [inhibitor, partial curve]. In the case of `COc1ccc(-c2cnnc(N/N=C/c3ccc(C)o3)n2)cc1`, the Potency is reported as inconclusive: 39.8 µM [inhibitor, single point]. For `CC12CCC3c4ccc(OCc5ccccc5)cc4CCC3C1CC(O)C2O` (stereo not given), the Potency was inconclusive: 25.1 µM [inhibitor, single point]. With `Clc1ccc(-c2cc3ccccc3nc2N2CCOCC2)cc1` the Potency was inconclusive: 31.6 µM [activator, single point]. For `COc1ccc(NC(=O)COC(=O)CC23CC4CC(CC(C4)C2)C3)c([N+](=O)[O-])c1`, the Potency was inconclusive: 25.1 µM [inhibitor, partial curve]. For `Cn1cccc1/C=C1\SC(=S)N(NC(=O)c2ccc(Cl)cc2)C1=O`, the Potency was inconclusive: 15.8 µM [inhibitor, partial curve]. For `CCCCC[C@H](O)/C=C\[C@@H]1[C@H](O)CC(=O)[C@@H]1CCCCCCC(=O)O`, the “activity change, negative = inhibition” value was inactive: -5.63% [at 25.7 µM]. In the case of `COc1ccc(/C=N/NC(=S)Nc2cccc(C(=O)O)c2)cc1`, the Potency is reported as inconclusive: 12.6 µM [activator, partial curve, poor fit]. In the case of `CCN1C/C(=C/c2cccs2)c2nc3ccccc3c(C(=O)O)c2C1`, the “activity change, negative = inhibition” value is reported as inactive: -9.45% [at 57.5 µM]. For `C=CCC(C)(O)c1cccc(Br)c1` (stereo not given), the “activity change, negative = inhibition” value was inactive: -9.56%. With `O=[N+]([O-])c1ccccc1N/N=C/c1ccc2c(c1)OCO2` the Potency was inconclusive: 3.98 µM [inhibitor, full curve]. For `O=C(c1ccco1)N1CCC2(CC1)CN(C(c1ccccc1)c1ccccc1)C2`, the “activity change, negative = inhibition” value was inactive: 5.16%. With `NS(=O)(=O)c1ccc(CCNS(=O)(=O)c2ccc(Cl)nc2)cc1` the “activity change, negative = inhibition” value was inactive: 4.03% [at 57.5 µM]. With `COC(=O)N[C@H](c1ccccc1)C(C(C)=O)C(=O)OC` (stereo not given in full) the “activity change, negative = inhibition” value was inactive: -6.06%. In the case of `COc1ccc(-c2cc(=O)c(C(=O)c3ccc(C)cc3)n[nH]2)cc1`, the “activity change, negative = inhibition” value is reported as inactive: 1.01%. In the case of `Cc1cc(OCCCN2CCN(Cc3ccccc3)CC2)ccc1[N+](=O)[O-]`, the Potency is reported as inconclusive: 39.8 µM [inhibitor, single point]. In the case of `Cc1ccc(S(=O)(=O)NCCc2cccs2)cc1`, the “activity change, negative = inhibition” value is reported as inactive: 9.09% [at 57.5 µM]. With `CN(C)CCCNc1oc(-c2ccc(Cl)cc2)nc1C#N` the Potency was inconclusive: 25.1 µM [inhibitor, single point]. With `O=C(CSc1nc2ccccc2o1)Nc1nc(-c2ccccc2)cs1` the Potency was inconclusive: 35.5 µM [inhibitor, single point]. With `CN(Cc1cccnc1)Cc1cn[nH]c1-c1ccc(-c2ccccc2)cc1` the Potency was inconclusive: 35.5 µM [inhibitor, single point]. In the case of `Cc1nn(-c2ccccc2)c(N2CCCC2)c1/C=N/Nc1ccc(S(N)(=O)=O)cc1[N+](=O)[O-]`, the Potency is reported as inconclusive: 20 µM [inhibitor, partial curve]. In the case of `Cc1sc2ncnc(NC3CCN(Cc4ccccc4)CC3)c2c1C`, the Potency is reported as inconclusive: 39.8 µM [inhibitor, single point]. With `CN(CCCNC(=O)c1cc2c(Cl)nc3ccccc3c2s1)Cc1ccccc1` the Potency was active: 25.1 µM. With `Oc1c(N=NC(=S)Nc2ccccc2F)c2ccccc2n1Cc1cccc(Cl)c1` the Potency was inconclusive: 25.1 µM [inhibitor, partial curve]. With `CC1CCC2C(=O)N(c3ccc(NC4CCCCC4)c([N+](=O)[O-])c3)C(=O)C2C1` (stereo not given) the Potency was inconclusive: 28.2 µM [inhibitor, single point]. With `COc1ccc(Cc2noc(CN3CCC(c4ccncc4)CC3)n2)cc1OC` the Potency was inconclusive: 25.1 µM [inhibitor, partial curve, poor fit]. For `Cc1ccccc1N=Nc1c(C)[nH]n(-c2ccccc2)c1=O`, the Potency was inconclusive: 8.91 µM [inhibitor, partial curve]. In the case of `O=C(Nc1ccc2c(c1)OCO2)c1ccc(N2CCCC2)c([N+](=O)[O-])c1`, the Potency is reported as inconclusive: 11.2 µM [inhibitor, partial curve]. With `CCOc1ccc(NC(=O)COc2ccc(OC)cc2)cc1` the Potency was inconclusive: 8.91 µM [inhibitor, single point]. For `C/C(=C\C=C(C#N)C#N)c1cc(C#N)c(N)o1`, the Potency was inconclusive: 20 µM [inhibitor, partial curve, poor fit]. In the case of `CC(C)c1ccc2c(c1)c(SC(C)(C)C)c(CC(C)(C)C(=O)O)n2Cc1ccc(Cl)cc1`, the Potency is reported as inconclusive: 17.8 µM [inhibitor, partial curve] and inconclusive: 35.5 µM [inhibitor, single point]. In the case of `Cc1ccc(NC(=S)N/N=C/c2cccn2Cc2ccccc2F)cc1`, the Potency is reported as inconclusive: 2.24 µM [inhibitor, partial curve]. With `COc1c2ccccc2c(OC)c2ccccc12` the Potency was inconclusive: 3.98 µM [activator, full curve, poor fit]. With `Cc1onc(-c2ccccc2)c1C(=O)O/N=C(\N)c1ccc([N+](=O)[O-])o1` the Potency was inconclusive: 31.6 µM [inhibitor, single point].
